Laboratory results: PubChem BioAssay AID493208 (National Center for Advancing Translational Sciences (NCATS), 2011)
The campaign covered roughly 44,000 compounds. About 340 (0.77%) were called active. Roughly 5% stayed inconclusive and do not appear here. Calls follow the shape of the dose curve; as a rule, active = well fitted inhibition curve with a large enough effect; inconclusive = small, poorly fitted or top-dose-only effect; inactive = flat fitted curve, though single readings scatter. This is one part of the list.

assay: Acumen qHTS Assay for Inhibitors of the mTORC1 Signaling Pathway in MEF (Tsc2-/-, p53-/-) Cells: Sytravon; settings: phospho-rpS6 immunofluorescence/PI, 24 h; series mostly up to 38.3 µM; activity change, negative = inhibition: at the top concentration; also: nearly all actives have a fitted effect of over 50% in size;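 as to activity change, negative = inhibition: plate controls were DMSO for no effect and rapamycin for full effect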
In short: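 Plate MEFs (Tsc2-/-, p53-/-, empty vector) in DMEM/10% FBS; after 24 h add compound, incubate 24 h at 37 degree Celsius; fix in PFA/TX-100, block, stain phospho-rpS6 and 10 uM PI; scan at 488 nm; report % positive cells.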
Potency is read from the fitted curve at half-maximal effect.

Row | Structure (SMILES) | activity change, negative = inhibition | Potency
1 | CCOc1ccc(-c2nc(Cn3c(=O)cc(C)c4c(C)nn(-c5ccccc5)c43)c(C)o2)cc1 | inactive: 1.26% | 
2 | CCCCCCn1nnc2sc(-c3ccccc3)cc2c1=O | inactive: -8.95% | 
3 | CC1CCN(CC2CCN(C(=O)NCc3ccccc3)CC2)CC1 | inactive: -3.55% | 
4 | COc1cc(C)ccc1OCCSc1nc2ccc(NC(=O)c3ccco3)cc2s1 | inactive: -9.45% | 
5 | COc1ccc(C2CC(=O)c3cc(-c4nc(-c5cccc([N+](=O)[O-])c5)cs4)c(=O)n(-c4ccccc4)c3C2)cc1 (stereo not drawn) | inactive: 1.09% | 
6 | CCN1c2ccccc2-c2nc(SCC(=O)Nc3cccc(C)c3C)ncc2S1(=O)=O | inactive: -5.19% | 
7 | CCn1cc(C(=O)N(C)Cc2ccccc2)c(=O)c2cc(S(=O)(=O)N3CCc4ccccc4C3)ccc21 | inactive: 7.77% | 
8 | CCc1ccc(NC(=O)CSc2ccnc(=O)[nH]2)cc1 | inactive: 4.84% | 
9 | COc1cccc(C(=O)NCC2OCCc3ccccc32)c1 (stereo not drawn) | inactive: 9.18% | 
10 | O=C(NCCc1ccccc1)c1ccc2c(c1)N(Cc1ccc(Cl)cc1)C(=O)CS2 | inactive: -8.08% | 
11 | Cc1nn(C)c(C)c1S(=O)(=O)N(CC(=O)NCCc1ccccc1)c1ccc(C(C)C)cc1 | inactive: -16.2% | 
12 | Cc1ccc(C(=O)c2cn(Cc3cccc(Cl)c3)c3nc(C)ccc3c2=O)cc1 | inactive: -6.85% | 
13 | CCCCNC(=O)c1nn(C)c2c1CSc1ccccc1-2 | inactive: -0.897% | 
14 | O=C(CSCc1ccc(F)cc1)N1CCN(c2ccccc2F)CC1 | inactive: 1.84% | 
15 | Cc1cc2c(cc1S(=O)(=O)NCc1ccc(F)cc1)n(C)c(=O)c(=O)n2C | inactive: 1.68% | 
16 | Cc1cccc(N2C(=O)CC(c3ccc(F)cc3)C3=C2COC3=O)c1 (stereo not drawn) | inactive: -16.1% | 
17 | COc1ccc(NC(=O)c2ccco2)cc1NC(=O)COc1ccc(C)c(C)c1 | inactive: 1.15% | 
18 | Cc1ccc(-c2nn3c(-c4ccccc4C)nnc3c3ccccc23)cc1 | inactive: 1.45% | 
19 | CCOC(=O)c1cc(-c2ccccc2)n(-c2cccc(C(=O)Nc3cccc(SC)c3)c2)c1C | inactive: -2.66% | 
20 | COc1ccc(CCC(=O)NCCc2csc(-c3ccc(F)cc3)n2)cc1 | inactive: -9.81% | 
21 | COc1ccc(OC)c(NC(=O)CSc2nc(=O)n(CCN(C)C)c3c2CCC3)c1 | inactive: -5.88% | 
22 | CCc1ccccc1NC(=O)N1CCOc2ccccc21 | inactive: 0% | 
23 | O=C(Cn1ncc2c([nH]c3ccccc32)c1=O)NCCCN1CCN(c2ccc(F)cc2)CC1 | inactive: -0.662% | 
24 | CCCOc1ccc(C2C(=O)N(C3CCCCCC3)CC(=O)N2Cc2ccccc2OC)cc1OC (stereo not drawn) | inactive: 1.1% | 

Row | Structure (SMILES) | activity change, negative = inhibition | Potency
25 | COc1cc(NC(=O)CC2C(=O)N(c3ccccc3)C(=O)N2Cc2ccc(F)cc2)cc(OC)c1 (stereo not drawn) | inactive: -3.1% | 
26 | CCc1ccc(-n2c(=O)c3c4c(sc3n(Cc3ccccc3C#N)c2=O)CCCC4)cc1 | inactive: 1.85% | 
27 | CCCn1c2ccccc2c2cnn(CC(=O)Nc3cc(C)c(Cl)cc3OC)c(=O)c21 | inactive: -2.77% | 
28 | CC1CCc2c(sc(NC(=O)Cc3ccccc3)c2C(=O)Nc2ccc(Cl)cc2)C1 (stereo not drawn) | inactive: -5.93% | 
29 | Cc1ccccc1-c1noc(CSc2nc3ccccc3[nH]2)n1 | inactive: -0.87% | 
30 | CCOC(=O)C1CCCN(C(=O)c2ccc3c(c2)sc2nc(-c4cccc(OC)c4)cn23)C1 (stereo not drawn) | inactive: -0.929% | 
31 | CCOCCc1nn2c(=O)cc(COC(=O)c3ccccc3OC)nc2s1 | inactive: 3.15% | 
32 | COCCCn1c(SCc2cccc(Cl)c2)nc2c(sc3ccccc32)c1=O | inactive: -4.9% | 
33 | CCc1ccccc1Nc1nn2c(=O)c3ccc(C(=O)NCCC4=CCCCC4)cc3nc2s1 | inactive: -6.38% | 
34 | Cc1cc(=O)n2nc(N(C)CC(=O)NCc3ccccc3C)sc2n1 | inactive: 0.175% | 
35 | CCCC(=O)Nc1cccc(OCc2cc(=O)n3cccc(C)c3n2)c1 | inactive: -14.4% | 
36 | O=C(NCCc1ccccc1)c1cc(Nc2ccccc2)nc2ccccc12 | inactive: -9.83% | 
37 | CCOCCc1nnc(NC(=O)C(=O)c2cc(C)n(-c3ccc(C)cc3C)c2C)s1 | inactive: -1.35% | 
38 | CCn1c(C)c(C)c2cc(C(=O)NCC(C)c3ccccc3)ccc21 (stereo not drawn) | inactive: -13.4% | 
39 | COc1ccc2c(c1)c1c(c(=O)n(Cc3ccccc3)c(=O)n1CC(=O)Nc1ccccc1OC)n2C | inactive: -0.408% | 
40 | COc1ccc(N(CC(=O)Nc2cccc(Cl)c2)S(=O)(=O)c2c(C)[nH]c(=O)[nH]c2=O)cc1 | inactive: -9.93% | 
41 | CCOc1ccc(Nc2nc(-c3cccc(Cl)c3)c3c(n2)-c2ccccc2OC3)cc1 |  | active: 2.33 µM
42 | COc1ccc(N2CCN(CCCNC(=O)C3COc4ccccc4C3)CC2)cc1 (stereo not drawn) | inactive: -7.19% | 
43 | O=C(c1ccc2c(Cl)c3c(nc2c1)CCCC3)N1CCN(c2ccc(Cl)cc2)CC1 | inactive: 1.39% | 
44 | O=C(Nc1nc2c(F)cc(F)cc2s1)c1ccc(S(=O)(=O)N2CCc3ccccc32)cc1 | inactive: -10.2% | 
45 | CCOc1ccc(-n2c(=O)c3c4c(sc3n(CC(=O)NC(C)CC)c2=O)CCCCC4)cc1 (stereo not drawn) | inactive: -0.173% | 
46 | COC(=O)c1ccc(N2C(=O)Cc3cc(OC)c(OC)cc3C2c2ccc(F)cc2)cc1 (stereo not drawn) | inactive: 7.61% | 
47 | CCN1C(C(=O)c2ccccc2)=C(OC(=O)COc2ccc(C)cc2)c2ccccc2S1(=O)=O | inactive: -12.4% | 
48 | Cc1ccc(CNC(=O)CSc2nc3c(sc4ccccc43)c(=O)n2CCCC(=O)NCCO)cc1 | inactive: -9.07% | 
